PubChem BioAssay AID686979 (National Center for Advancing Translational Sciences (NCATS), 2013)
Several values for one entry are separate records, joined by “and”; a condition that tells them apart may be missing. Equal entries are not always repeated. Screen size: about 420,000 compounds; about 50,000 (12%) were called active. Inconclusive means that the source gave no clear call. Such entries were picked first, then a sample of the others. Calls come from the whole dose curve; as a rule, active = well fitted inhibition curve with a large enough effect; inconclusive = small, poorly fitted or top-dose-only effect; inactive = flat fitted curve, though single readings scatter. Potencies beside an inconclusive call are fits to weak or partial responses and may not hold up.

Assay: qHTS for Inhibitors of human tyrosyl-DNA phosphodiesterase 1 (TDP1): qHTS in cells in presence of CPT; note: nearly all actives have a fitted effect of over 55% in size
Settings: chicken DT40 Tdp1-/-;hTDP1 cells + 20 nM CPT, ATP luminescence, 48 h; activity change, negative = growth inhibition: at 46.2 µM (top of the series) unless noted
Summary of the method: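 Cell growth measured by CellTiter-Glo luminescence after a minimum 48 h, 37 C compound exposure with 20 nM CPT in Tdp1-knockout DT40 cells stably expressing hTDP1, seeded 400/well; qHTS titration format.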
% is set by controls: 0 for no effect and ±100 for the full control effect; potency is the fitted concentration of half-maximal effect; tags give direction and shape of the fitted curve.

Question: With `N#CC1=C(N)Oc2n[nH]c(-c3cccs3)c2C1c1ccccc1C(=O)O` (stereo not given) as the compound, how does the “activity change, negative = growth inhibition” value read?
Answer: inactive: 18.6%

Question: Which Potency does the source give for `Cc1c(Cl)cccc1NC(=O)Cn1c(=O)nc(-c2ccccc2)c2ccccc21` here?
Answer: inconclusive: 16.4 µM [inhibitor, single point]

Question: With `Nc1nc2ccccc2n1CCOc1ccc(Br)cc1` as the compound, how does the Potency read?
Answer: inconclusive: 20.6 µM [inhibitor, single point]

Question: For `CC(=O)c1ccc(OCCCC(=O)Nc2cccc(S(=O)(=O)N3CCOCC3)c2)cc1`, which Potency is on record?
Answer: inconclusive: 29.1 µM [inhibitor, single point]

Question: With `CC(=O)NO` as the compound, how does the Potency read?
Answer: inactive and inconclusive: 5.96 µM [inhibitor, full curve, poor fit]

Question: Which “activity change, negative = growth inhibition” value does the source give for `CCOc1ccccc1/C=N/OCC(=O)NCc1ccc(F)cc1` here?
Answer: inactive: 0.389%

Question: For `Cc1ccc(CNC(=O)c2ccc3c(=O)n4c(-c5ccc(C)cc5)csc4nc3c2)cc1`, which Potency is on record?
Answer: active: 7.31 µM

Question: With `COc1ccccc1-c1nnc(C2CCN(S(=O)(=O)c3ccc([N+](=O)[O-])cc3)CC2)o1` as the compound, how does the Potency read?
Answer: inconclusive: 29.1 µM [inhibitor, single point]

Question: With `CCCN(C)C[C@H]1Oc2cc(C#Cc3ccc(F)cc3)ccc2S(=O)(=O)N([C@H](C)CO)C[C@@H]1C` as the compound, how does the Potency read?
Answer: inconclusive: 29.1 µM [inhibitor, single point]

Question: Which Potency does the source give for `CCc1ccc(NC(=O)c2ccc(-n3cncn3)c([N+](=O)[O-])c2)cc1` here?
Answer: inconclusive: 29.1 µM [inhibitor, single point]

Question: With `COc1ccc(Br)cc1CN(C)C(=O)Cc1ccc(OC)c(S(=O)(=O)N2CCOCC2)c1` as the compound, how does the activity change, negative = growth inhibition read?
Answer: inconclusive: -34.9% [inhibitor]

Question: For `O=C(O)CN1CCCCCC1=O`, which “activity change, negative = growth inhibition” value is on record?
Answer: inactive: -11.9%

Question: For `CN(Cc1ccccc1)Cc1cc(=O)oc2ccccc12`, which Potency is on record?
Answer: inconclusive: 29.1 µM [inhibitor, single point]

Question: With `CCc1[nH]c(=O)[nH]c1C(C)S(=O)(=O)c1ccc(C)cc1` (stereo not given) as the compound, how does the Potency read?
Answer: inconclusive: 25.9 µM [inhibitor, single point]

Question: For `Cc1oc(-c2cccc3ccccc23)nc1CN1CCN(c2ncnc3ccccc23)CC1`, which Potency is on record?
Answer: active: 16.4 µM

Question: For `CCc1ccc(-c2cc(C(=O)Nc3c(C)n(C)n(-c4ccccc4)c3=O)c3ccccc3n2)s1`, which Potency is on record?
Answer: inconclusive: 23.1 µM [inhibitor, single point]

Question: Which Potency does the source give for `O=C(CSc1nc(-c2ccccc2)cs1)Nc1nccs1` here?
Answer: inconclusive: 20.6 µM [inhibitor, partial curve]

Question: For `COc1ccc(C2=CC(c3ccccc3F)n3ncc(C(=O)Nc4ccc(C)cc4)c3N2)cc1` (stereo not given), which Potency is on record?
Answer: active: 5.17 µM

Question: For `CCN(CC)C(=O)c1sc(NC(=O)C(C)Sc2nc(-c3ccccc3)cc(C(F)(F)F)n2)c(C(=O)OC)c1C` (stereo not given), which Potency is on record?
Answer: active: 7.31 µM

Question: Which “activity change, negative = growth inhibition” value does the source give for `CC1(C)CC(=O)C(C(c2ccc(F)cc2)C2C(=O)CC(C)(C)CC2=O)C(=O)C1` here?
Answer: inactive: -0.451%

Question: Which Potency does the source give for `COC(=O)c1ccc(/C=C2\N=C(SC)SC2=O)cc1` here?
Answer: inconclusive: 9.2 µM [inhibitor, partial curve]

Question: Which activity change, negative = growth inhibition does the source give for `CCC1CCCCN1S(=O)(=O)c1ccc2c(c1)CCN2C(C)=O` (stereo not given) here?
Answer: inconclusive: -30.4% [inhibitor]

Question: Which Potency does the source give for `COc1ccccc1Cn1ccn(Cc2c(F)cccc2Cl)c(=O)c1=O` here?
Answer: inconclusive: 29.1 µM [inhibitor, single point]

Question: Which Potency does the source give for `Cc1ccccc1N=CC1=C(O)c2ccccc2C1=O` here?
Answer: inconclusive: 7.31 µM [inhibitor, partial curve]

Question: Which “activity change, negative = growth inhibition” value does the source give for `COCCCN(C(=O)CSc1nc2ccccc2c(=O)n1C)c1c(N)n(Cc2ccccc2)c(=O)[nH]c1=O` here?
Answer: inactive: -5.22%

Question: For `CN(C)c1oc(/C=C/c2ccc(F)cc2)nc1C#N`, which “activity change, negative = growth inhibition” value is on record?
Answer: inactive: -22.1%

Question: For `O=C(CNC(=O)c1ccccc1)N=Nc1c(O)[nH]c2ccc(Br)cc12`, which Potency is on record?
Answer: inconclusive: 29.1 µM [inhibitor, single point]

Question: Which Potency does the source give for `CCCCn1cnc2c(SCc3ccc(Br)cc3)nc(N)nc21` here?
Answer: inconclusive: 23.1 µM [inhibitor, single point]

Question: With `O=c1[nH]c2ccc(Cl)cc2c(-c2ccccc2)c1CN1CCOCC1` as the compound, how does the Potency read?
Answer: inconclusive: 20.6 µM [inhibitor, single point]

Question: For `CCC(CC)NC(=O)CON=C1c2ccccc2-c2ccccc21`, which Potency is on record?
Answer: active: 20.6 µM

Question: For `CC(=O)NC1C(OC2OC(CC(O)C3OC([N+]4=CCC(=O)NC4=O)C(O)C3O)C(O)C(O)C2NC(=O)/C=C/CCCCCCCCC(C)C)OC(CO)C(O)C1O` (stereo not given), which Potency is on record?
Answer: active: 0.114 µM

Question: Which Potency does the source give for `Cc1ccc(C(=O)N2CCN(c3ccc(C(F)(F)F)cn3)CC2)c(C)c1` here?
Answer: active: 16.4 µM

Question: For `Cc1cccc(-c2c3c(=O)n(C)c(=O)n(C)c3cn2-c2cc(N)c(Cl)cc2Cl)c1`, which Potency is on record?
Answer: active: 5.8 µM

Question: For `C=CCNC1=C(Cl)C(=O)N(Cc2ccccc2)C1=O`, which “activity change, negative = growth inhibition” value is on record?
Answer: inactive: 1.73%

Question: With `C=CCC(=O)N1CCCC(CO)(Cc2ccc(F)cc2F)C1` (stereo not given) as the compound, how does the “activity change, negative = growth inhibition” value read?
Answer: inactive: -17.7%

Question: With `O=C(Nc1ccc(N2CCCC2)cc1)c1ccc(Br)o1` as the compound, how does the Potency read?
Answer: inconclusive: 16.4 µM [inhibitor, single point]

Question: For `COc1cccc(/C=C/C(=O)Nc2ccc3c(c2)OCCO3)c1OC`, which Potency is on record?
Answer: active: 18.4 µM

Question: With `O=C(/C=C/c1ccccc1)Nc1ccc(C(=O)N2CCCCC2)cc1` as the compound, how does the Potency read?
Answer: inconclusive: 20.6 µM [inhibitor, partial curve, poor fit]

Question: Which Potency does the source give for `Cc1ccc(NC(=O)c2cc(-c3ccc(C)o3)nc3ccccc23)cc1` here?
Answer: inconclusive: 29.1 µM [inhibitor, single point]

Question: With `COc1ccc(CC(=O)NCc2cccs2)cc1` as the compound, how does the Potency read?
Answer: active: 23.1 µM

Question: With `Cc1c(NC(=O)CSc2nnc(C(C)Oc3ccc(Cl)cc3)n2-c2ccccc2)c(=O)n(-c2ccccc2)n1C` (stereo not given) as the compound, how does the Potency read?
Answer: inconclusive: 12.6 µM [inhibitor, partial curve]

Question: With `C/C(=N/NC(=O)c1ccc(-c2ccccc2)cc1)c1cc(O)cc(O)c1` as the compound, how does the Potency read?
Answer: active: 20.6 µM

Question: Which “activity change, negative = growth inhibition” value does the source give for `CC1(C(=O)N(CC(=O)NC2CCCC2)Cc2ccco2)CC(=O)N=C2C=CC=CN21` (stereo not given) here?
Answer: inactive: 0.463%

Question: For `COc1ccc(C(=O)NC(=S)N2CCN(c3ccc([N+](=O)[O-])cc3)CC2)cc1`, which Potency is on record?
Answer: inconclusive: 29.1 µM [inhibitor, single point]

Question: For `COc1cccc(-c2ccc3ncnc(NCc4ccc(OC)cc4OC)c3c2)c1`, which Potency is on record?
Answer: inconclusive: 29.1 µM [inhibitor, single point]

Question: With `CC(C)(C)OC(=O)CNC(=O)c1nc[nH]c1C(=O)NCc1ccccc1` as the compound, how does the Potency read?
Answer: inconclusive: 20.6 µM [inhibitor, single point]

Question: With `O=C(CC(=O)N/N=C/c1cccs1)NCc1ccccc1` as the compound, how does the “activity change, negative = growth inhibition” value read?
Answer: inactive: 9.37%

Question: With `c1ccc2nc3[nH]cnc3nc2c1` as the compound, how does the “activity change, negative = growth inhibition” value read?
Answer: inactive: -1.25%

Question: With `Cc1ccc(C)c(NC(=O)CCc2nnc3ccc(N4CCCCC4)nn23)c1` as the compound, how does the Potency read?
Answer: inconclusive: 0.731 µM [inhibitor, full curve, poor fit]

Question: Which Potency does the source give for `CCOC(=O)C1=C(CC)Nc2ccccc2N=C1NC(=O)c1cc(S(=O)(=O)N2CCOCC2)ccc1C` here?
Answer: inconclusive: 11.6 µM [inhibitor, partial curve, poor fit]

Question: Which Potency does the source give for `CCOc1ccccc1N(CC(=O)N1CCOCC1)S(=O)(=O)c1ccc(SC)cc1` here?
Answer: inconclusive: 0.58 µM [inhibitor, full curve, poor fit]

Question: With `CC(C)(C)OC(=O)N1CCC(c2c(C(=O)NCc3cccs3)cnn2-c2ccc(F)cc2F)CC1` as the compound, how does the Potency read?
Answer: inconclusive: 18.4 µM [inhibitor, single point]

Question: Which “activity change, negative = growth inhibition” value does the source give for `COc1ccc(Cl)cc1Nc1ncnc2c1c(-c1ccccc1)cn2-c1ccccc1` here?
Answer: inactive: -7.38%

Question: Which Potency does the source give for `CCN1CCN(c2ccc(S(=O)(=O)N3CCCCC3)cc2NC(=O)c2cccc(OC(F)F)c2)CC1` here?
Answer: inconclusive: 20.6 µM [inhibitor, single point]

Question: With `CC(C)(C)c1ccc(C(=O)N2CCNC(=O)C2CC(=O)Nc2ccc(F)cc2)cc1` (stereo not given) as the compound, how does the “activity change, negative = growth inhibition” value read?
Answer: inactive: -8.89%

Question: Which Potency does the source give for `O=C(CN1C(=O)NC2(CCCC2)C1=O)NCCN1C(=O)S/C(=C\c2ccccc2F)C1=O` here?
Answer: inconclusive: 16.4 µM [inhibitor, single point]

Question: Which Potency does the source give for `Clc1ccc(CN=C(Nc2ccccc2)NC2CCCCC2)cc1` here?
Answer: active: 18.4 µM

Question: With `COc1ccc(/C=C2\Sc3ccc(C(=O)NC4CC4)cc3N(C)C2=O)cc1OC` as the compound, how does the Potency read?
Answer: inconclusive: 29.1 µM [inhibitor, single point]

Question: Which Potency does the source give for `COc1ccc(-n2c(Cc3cccn3C)nnc2SCC(=O)Nc2ccccc2C)cc1` here?
Answer: inconclusive: 29.1 µM [inhibitor, single point]

Question: For `Cc1c2cnn(CC(=O)NCc3ccc(F)cc3)c(=O)c2c(C)n1Cc1ccccc1F`, which Potency is on record?
Answer: inconclusive: 16.4 µM [inhibitor, single point]

Question: Which Potency does the source give for `COc1ccc(C2CCCCCN2C(=O)C2CCN(S(=O)(=O)c3ccc(C)cc3)CC2)cc1` (stereo not given) here?
Answer: inconclusive: 20.6 µM [inhibitor, single point]

Question: With `N=C1C(c2ccccc2)=C(O)CN1c1ccc2c(c1)OCO2` as the compound, how does the “activity change, negative = growth inhibition” value read?
Answer: inactive: -21.2%

Question: Which Potency does the source give for `CCN(CC)S(=O)(=O)c1ccc(S(=O)(=O)N(CC(=O)Nc2ccccc2)CC2CCCO2)cc1` (stereo not given) here?
Answer: inconclusive: 25.9 µM [inhibitor, partial curve]

Question: Which Potency does the source give for `CN1OC[C@@H]2CN(Cc3ccccc3)[C@H](c3ccc(N4CCCCC4)cc3)C[C@@H]21` here?
Answer: inconclusive: 25.9 µM [inhibitor, single point]

Question: With `COc1cccc2cc(C(=O)NCc3ccccn3)c(=O)oc12` as the compound, how does the “activity change, negative = growth inhibition” value read?
Answer: inactive: -11.6%

Question: For `COCCN1CCc2nc(SCC(=O)Nc3ccc(Br)cc3)[nH]c(=O)c2C1`, which “activity change, negative = growth inhibition” value is on record?
Answer: inactive: -1.42%

Question: With `COC(=O)N/N=C\c1ccc(-c2cc(Cl)c(Cl)cc2Cl)o1` as the compound, how does the Potency read?
Answer: inconclusive: 16.4 µM [inhibitor, single point]

Question: For `O=C(Nc1cc(C(F)(F)F)ccc1-n1cncn1)C1CC1`, which “activity change, negative = growth inhibition” value is on record?
Answer: inactive: 1.81%

Question: For `CCCCNC(=O)OCCSCCS(=O)(=O)c1ccc(Cl)cc1`, which “activity change, negative = growth inhibition” value is on record?
Answer: inactive: 0.699%

Question: With `Cc1ccc(NC(=O)c2ncn(CC(=O)NCc3ccc4[nH]ccc4c3)n2)cc1C` as the compound, how does the Potency read?
Answer: inconclusive: 18.4 µM [inhibitor, single point]
